Laboratory results from PubChem BioAssay AID485344 (National Center for Advancing Translational Sciences (NCATS), 2010).
Hit rate of the full screen: of about 340,000 compounds, about 6,900 (2%) were called active. Rule as the data show it: active = inhibition above about 30%; inactive = below that, where a call was filed. The entries are a selection whose mix differs from that of the whole data set. The source gives no active or inactive call for entries shown without one.

The compounds below were run against D(2) dopamine receptor (Homo sapiens) (UniProt P14416) (assay: HTS Assay for Allosteric Antagonists of the Human D2 Dopamine Receptor: Primary Screen for Antagonists). Conditions: HEK293 TREx D2 cells, calcium flux, dopamine EC80; at 10 µM; stronger effect = higher value.
In short: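 Overnight-induced (tetracycline, 30 C) HEK293 T-REx cells carrying force-coupled D2 receive a no-wash calcium dye, then compound, then EC80 dopamine at 180 s; signals are read kinetically throughout.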
Also: 0% is about no effect.

Sequence of UniProt P14416 (P14416 whole entry, looked up): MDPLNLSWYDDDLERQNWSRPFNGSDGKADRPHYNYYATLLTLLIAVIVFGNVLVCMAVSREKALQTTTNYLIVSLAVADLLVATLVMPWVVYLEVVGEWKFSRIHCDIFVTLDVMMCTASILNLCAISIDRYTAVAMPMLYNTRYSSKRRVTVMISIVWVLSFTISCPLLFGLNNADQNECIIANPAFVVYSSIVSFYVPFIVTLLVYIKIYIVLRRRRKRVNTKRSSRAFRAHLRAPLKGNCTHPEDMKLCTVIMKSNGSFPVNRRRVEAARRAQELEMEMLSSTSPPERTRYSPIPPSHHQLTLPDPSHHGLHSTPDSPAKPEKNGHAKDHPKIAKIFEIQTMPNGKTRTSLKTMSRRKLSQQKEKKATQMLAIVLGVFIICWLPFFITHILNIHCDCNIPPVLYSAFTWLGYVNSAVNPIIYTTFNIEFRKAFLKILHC

Row | SMILES | inhibition
1 | CCS(=O)(=O)N1CCC2(CC1)OC(=O)C(C)=C2C(=O)NCc1ccc(OC)c(OC)c1 | 3.9%
2 | Cc1cc(C)c(NC(=O)CN2C(=O)NC(CCc3ccccc3)C2=O)c(C)c1 (stereo not given) | active: 31.7%
3 | Cn1c(=O)c2c(-c3ccc(Cl)cc3)ccnc2n(C)c1=O | -0.972%
4 | NC(=O)C1CCN(S(=O)(=O)c2cc3c4c(c2)CCN4C(=O)CC3)CC1 | active: 30.3%
5 | COc1ccc(OC)c(CCNc2nc3cc(OC)c(OC)cc3c3nc(-c4cccnc4)nn23)c1 | 3.75%
6 | CCCN1CCc2c(sc(NC(=S)NC(=O)c3ccccc3)c2C#N)C1 | active: 77.6%
7 | CCc1c(C)sc(NC(=O)c2cc(-c3ccc(OC)c(OC)c3)on2)c1C#N | -4.75%
8 | COc1ccc(CCNC(=O)c2ccc3[nH]c(C)c(C)c3c2)cc1OC | -8.88%
9 | CCS(=O)(=O)N1CCc2cc(C(=O)Nc3cc(C)cc(C)c3)ccc21 | -1.23%
10 | COC(=O)c1ccc2c(c1)N(CC(=O)Nc1ccc(C)c(C)c1)C(=O)c1ccccc1S2 | 20.6%
11 | Cc1csc(NC(=O)C2CCCN(S(=O)(=O)c3ccc(Br)s3)C2)n1 (stereo not given) | active: 38.2%
12 | Cc1ccc(C)c(N2CCN(C(=O)NCc3noc4ccccc34)CC2)c1 | -15.4%
13 | Cc1ccc2nc(Nc3cccc(C(F)(F)F)c3)c3nnnn3c2c1 | 3.68%
14 | Cc1cc2oc(C(=O)Nc3sc4c(c3C(=O)NCC3CCCO3)CCCC4)cc(=O)c2cc1C (stereo not given) | 5.06%
15 | Cc1cccn2c(=O)c3cc(C(=O)NCCc4ccc(S(N)(=O)=O)cc4)n(C)c3nc12 | -7.59%
16 | CC(C)(C)c1ccc(OCC(=O)N(Cc2ccco2)Cc2ccccc2F)cc1 | 2.81%
17 | COc1cc(OC)cc(-c2nnc(SCC(=O)N3CCC(C)CC3)o2)c1 | -3.95%
18 | CC(=O)c1ccc(NC(=O)Cn2c(-n3nc(C)cc3C)nc(C)cc2=O)cc1 | -9.67%
19 | COc1ccc(CCNC(=O)CCn2c(=O)c3ccccc3n(CC(=O)Nc3cccc(C)c3)c2=O)cc1OC | 19.1%
20 | Cc1ccc2c(c1)cc1c(=O)n(CC(=O)NCc3ccco3)nc(C)n12 | -5.4%
21 | Cc1ccc(NC(=O)c2ccc([N+](=O)[O-])o2)c(C)c1 | active: 33.1%
22 | Cn1c(SCC(=O)Nc2ccc(F)cc2)nc2c([nH]c3ccccc32)c1=O | -5.46%
23 | COc1cccc(-c2cc(C(=O)NCc3ccccc3)[nH]n2)c1 | 0.0713%
24 | CCOc1ccc(C(C)C)cc1S(=O)(=O)Nc1cccc(-c2ccc(N3CCOCC3)nn2)c1 | -3.68%

Row | SMILES | inhibition
25 | CCN(C(=O)c1cc(S(=O)(=O)N2CCOCC2)cn1C)c1ccc(OC)cc1 | 5.11%
26 | Cc1ccc(NC(=O)C(Cc2ccccc2)NS(=O)(=O)c2ccc3c(c2)c(=O)n(C)c(=O)n3C)cc1 (stereo not given) | -2.76%
27 | COCCN=c1scc(-c2cccs2)n1/N=C/c1ccc(O)c(O)c1O | active: 73.3%
28 | Cc1ccc(CN2C(=O)c3ccccc3S(=O)(=O)c3ccc(C(=O)OCC4CCCO4)cc32)cc1 (stereo not given) | -1.09%
29 | Cn1cc(C(=O)O)c(=O)c2cc(S(=O)(=O)N3CCCCC3)ccc21 | 2.69%
30 | CCOc1nc(NC(=O)NS(=O)(=O)Oc2ccc(Cl)cc2)nc(-c2ccccc2)n1 | -1.76%
31 | COc1cccc(NC(=O)CN(C)C(=O)c2cccc(NS(=O)(=O)c3ccccc3)c2)c1 | active: 31.7%
32 | CCCC(=O)Oc1c(Sc2ccc(Cl)cc2)c(C)nn1-c1ccccc1 | 2.04%
33 | CCCCN(CC)CCCn1cnc2c([nH]c3ccc(Cl)cc32)c1=O | 6.31%
34 | CCC(=O)Nc1ccccc1-c1nc2ccccc2n(C(CC)C(=O)Nc2cccc(C(C)=O)c2)c1=O (stereo not given) | 5.54%
35 | CC(C)(C)C1CCc2nc(NC(=O)COc3ccc(F)cc3)sc2C1 (stereo not given) | 7.53%
36 | CC(=O)Nc1ccc(-n2cc3c(c2-c2ccc(C)cc2)c(=O)n(C)c(=O)n3C)cc1 | -2.64%
37 | Cc1oc(-c2ccc(C(=O)Nc3ccc(F)cc3F)cc2)nc1COc1ccccc1 | -9.93%
38 | CCN(CC)CCNC(=O)c1cn(-c2ccccc2)nc1-c1cccs1 | active: 36.8%
39 | CC(C)(C)c1ccc(OCCSc2nc(-c3cccs3)nc3cc(=O)[nH]n23)cc1 | -14.5%
40 | COc1ccc(Nc2oc(-c3ccc(COc4ccc(OC)cc4)o3)nc2C#N)cc1 | 4.43%
41 | O=C(Cn1ncc2c3ccccc3n(Cc3ccc(Cl)cc3)c2c1=O)NCCCc1ccccc1 | -1.91%
42 | CC(C)c1ccc(Nc2cc(C(=O)NCCc3ccccc3)c3ccccc3n2)cc1 | 4.02%
43 | CCC(C)NC(=O)C1CCN(C(=O)c2cc3sccc3n2Cc2ccc(Cl)cc2)CC1 (stereo not given) | -11.8%
44 | CCc1ccccc1N1CC(c2nc3ccccc3n2CC(C)C)CC1=O (stereo not given) | 5%
45 | CCCCN(CC)c1ncnc2c1sc1nc(N3CCOCC3)c3c(c12)CCCC3 | -9.29%
46 | Cc1ccc(C)c(S(=O)(=O)c2nnn3c2nc(N2CCCC2)c2sccc23)c1 | -8.09%
47 | COc1ccc2[nH]cc(CCNC(=O)Nc3ccc(F)cc3)c2c1 | 7.1%
48 | Cc1ccc(C)c(N2CCN(C(=O)c3cc(S(=O)(=O)N4CCCCC4)cn3C)CC2)c1 | -8.37%

Row | SMILES | inhibition
49 | CCCC(=O)Nc1nnc(SCc2cc(=O)c3cc(C)ccc3[nH]2)s1 | 7.64%
50 | O=C(c1ccc(CSc2nc3ccncc3n2Cc2ccccc2F)cc1)N1CCCCCC1 | 0.667%
51 | CC(C)CCNC(=O)N1CCN(S(=O)(=O)c2ccc3c(ccn3C)c2)CC1 | 14.4%
52 | CCOC(=O)c1c(S(=O)(=O)N2CCCC(C(=O)Nc3cc(C)ccc3OC)C2)c(C)n(C)c1C (stereo not given) | 5.33%
53 | CCOc1ccc(CCNC(=O)CCc2cn(Cc3ccc(C)cc3)c3ccccc23)cc1 | -3.41%
54 | COc1cccc(C2=NN(C(C)=O)C(c3cn(-c4ccccc4)nc3-c3cccs3)C2)c1 (stereo not given) | 7.77%
55 | CC1CCN(S(=O)(=O)c2ccc3c(c2)N(CC(=O)N2CCN(c4ccc(Cl)cc4)CC2)C(=O)CO3)CC1 | 0.487%
56 | COc1ccc(/C=C/c2onc(C)c2S(=O)(=O)N2CCC(C(=O)N3CCC(C)CC3)CC2)cc1 | -7.97%
57 | c1ccc2c(OCCCN3CCCCCC3)cccc2c1 | active: 73.9%
58 | O=C(c1ccc2c(c1)OCO2)N1CCC2(CC1)Oc1ccc(Cl)cc1C(=O)C21CC(c2ccccc2)=NO1 (stereo not given) | active: 42.1%
59 | Cc1ccccc1CSc1nc(-c2ccccc2)nc2c1Cc1c(CO)cnc(C)c1O2 | -10.2%
60 | COc1cccc(C(=O)NCC(c2ccc(N(C)C)cc2)N2CCOCC2)c1OC (stereo not given) | 7.33%
61 | c1ccc(CN2CCC(Nc3ncnc4sccc34)CC2)cc1 | active: 77.5%
62 | Cc1cccc(OCC(=O)N(Cc2cccc(Cl)c2)Cc2ccco2)c1C | -9.95%
63 | COc1ccc2cc(-c3cn4c(n3)sc3cc(F)ccc34)c(=O)oc2c1 | -8.87%
64 | Cc1ccc(S(=O)(=O)c2nc(-c3ccccc3)oc2N2CCCCCC2)cc1 | -1.51%
65 | Cc1ccc(NC(=O)N2CCN(c3nnc(C)c4c(C)n(-c5ccccc5)nc34)CC2)c(Cl)c1 | -10.1%
66 | CCc1ccccc1NC(=O)CCCN1C(=O)COc2ccc(C)cc21 | -4.19%
67 | CCNc1nc(Oc2ccc(OCC(=O)OC)nn2)nc(N2CCOCC2)n1 | 2.39%
68 | CCOc1ccc(-c2cccc(NS(=O)(=O)c3ccc(Cl)s3)c2)nn1 | 5.25%
69 | COc1ccc(NC(=O)CCCNC(=O)c2ccc(Cl)cc2)c(OC)c1 | active: 30.3%
70 | CCOc1ccc2nc(N3CCCC(C(=O)NCc4ccc(OC)cc4)C3)sc2c1 (stereo not given) | 1.27%
71 | CCOC(=O)N1CCc2c(sc(NCc3cccs3)c2C(=O)Nc2cc(OC)ccc2OC)C1 | 4.17%
72 | CC(C)c1ccc(Nc2cc(C(=O)NCc3cccs3)c3ccccc3n2)cc1 | -2.61%

Row | SMILES | inhibition
73 | CCOC(=O)c1nnn(C(CC)C(=O)Nc2c(C)cccc2C)c1C(=O)OCC (stereo not given) | -10.1%
74 | CCN(CC)C(=O)CSc1nnc2[nH]c(=O)cc(C)n12 | 21.6%
75 | CCc1cccc(NC(=O)c2c(C)oc3ncnc(N4CCCCC4)c23)c1 | 4.68%
76 | COc1ccc(C(=O)c2oc3ccccc3c2NC(=O)c2nc(SC)ncc2Cl)cc1Cl | -8.75%
77 | O=C1CN(C(=O)COc2ccc(Cl)cc2Cl)C(c2ccc(F)cc2)c2cc(F)ccc2N1 (stereo not given) | 0.329%
78 | COc1cc(OC)c(NC(=O)c2cnc(N3CCCC3)nc2C)cc1Cl | -9.29%
79 | CCSc1ncc(Cl)c(C(=O)Nc2sc(C(C)=O)c(C)c2C(=O)OC)n1 | 1.58%
80 | COCCCN1C(=O)C(O)=C(C(C)=O)C1c1cccc(F)c1 (stereo not given) | active: 36.8%
81 | COc1ccc(CNC(=O)c2ccc(Sc3ccc(Cl)cc3)c(NC(C)=O)c2)c(OC)c1 | -5.04%
82 | CCCC(=O)Nc1cccc(-c2nc3cc(C)c(C)cc3o2)c1C | 5.39%
83 | COC(=O)c1ccc2oc(=O)c(S(=O)(=O)c3ccc(C)cc3)cc2c1 | 20.3%
84 | CC(=O)Nc1ccc(NC(=O)CSc2nnc3c4cc(Br)ccc4n(C)c3n2)cc1 | 5.08%
85 | Cc1ccc(CNC(=O)C2CCN(c3nc4ccc(C)cc4[nH]3)CC2)cc1 | -3.62%
86 | CC(=O)Nc1cccc(-c2nnc(SCC(=O)c3cc([N+](=O)[O-])ccc3Br)o2)c1 | 0.097%
87 | CCCN1CCN(CCCNC(=O)c2cnn(-c3ccc(C)cc3)c2-n2cccc2)CC1 | 14.3%
88 | CC(=O)c1cccc(Nc2c3c(nc4nc(-c5cccs5)nn24)CCCC3)c1 | -7.6%
89 | COc1ccc(NC(=O)CCc2c(C)nc3c(-c4ccccc4)c(C)nn3c2C)cc1Cl | 24%
90 | Cc1ccc2c(c1)c1c(c(=O)n(-c3ccccc3C)c(=O)n1Cc1ccccc1F)n2C | -0.635%
91 | Cn1c(C(=O)NCc2ccc(Cl)cc2)cc2c(=O)n(C)c3ccccc3c21 | -3.56%
92 | Cc1ccc(Cl)cc1NC(=O)Cn1c(=O)oc2cc(S(=O)(=O)N3CCCCCC3)ccc21 | 7.85%
93 | Cc1ccc(NC(=O)c2ccc(=O)n(CC(=O)Nc3cc(C)cc(C)c3)n2)cc1 | 6.94%
94 | COc1ccc(-c2noc(C(C)NC(=O)c3ccco3)n2)cc1 (stereo not given) | 8.56%
95 | Cc1cccc2c1-c1sc(C(=O)NCCCN3CCN(c4cccc(Cl)c4)CC3)cc1CO2 | -19%
